These results are taken from patent US12459987B2, “Monoclonal antibodies for prevention and treatment of herpes simplex viral infections” (priority 2019, dated 2025).

The target of the experiment is T1, FcγRIV (Mus musculus, UniProt A0A0B4J1G0).
T1 construct: purchased Promega
T1 sequence (A0A0B4J1G0 21-249): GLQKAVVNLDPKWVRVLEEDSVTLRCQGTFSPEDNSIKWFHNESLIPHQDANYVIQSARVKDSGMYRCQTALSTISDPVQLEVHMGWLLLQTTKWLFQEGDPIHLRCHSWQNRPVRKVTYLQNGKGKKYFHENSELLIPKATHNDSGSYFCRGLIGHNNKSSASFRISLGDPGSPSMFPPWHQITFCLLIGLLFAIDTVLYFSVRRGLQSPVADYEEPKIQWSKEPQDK
Nature of the experiment: Promega FcγRIV ADCC Reporter Bioassay (FcγRIV activation). The format is cell-based, murine. The following applies: IgG1 and IgG2c isotypes of individual mAbs; 1 mg/mL. On the procedure: FIG. 4: FcγRIV activation by the IgG1 and IgG2c isotypes of individual mAbs. FcγRIV activation was assayed using the Promega FcγRIV ADCC Reporter Bioassay at a concentration of 1 mg/mL. Statistical analysis is by ANOVA, **P<0.01, ****P<0.0001.
Based on the obtained V(D)J sequences from each B-cell culture, paired heavy and light chains were re-expressed (as recombinant mouse IgG1 and IgG2c antibodies) in Expi293F cells (Kuraoka et al. Immunity 2016; DiLillo et al. Nature Medicine 2013). […] As expected, all recombinant antibodies reacted specifically with HSV-2 G lysates (FIG. 3). […] Binding of recombinant antibodies to HSV-2 G lysates was tested by ELISA. […]
Protection by serum antibodies elicited by ΔgD-2 vaccinations depends on FcγRIV activation. […] The IgG1 and IgG2c isotype of BMPC-23 were analyzed in an in vitro FcγRIV activation assay (FIG. 4), and in vivo protection assay (see description below, FIGS. 6A to 6C).
Both IgG1 and IgG2c forms of 22D10, 33B8, and BMPC-23 antibodies (≥4 mg each) were assessed for reproducibility of in vivo protection assay, and any dependency on Ig isotype for protection. […] To test roles of Ig isotypes on ability to provide protection, IgG1 and IgG2c isotypes of these three antibodies were generated and assessed for ability to activate mFcγRIV signaling (as a measurement for ADCC), and for in vivo protection assay.

B1: BMPC-23 IgG2c: recombinant mouse IgG2c isotype of BMPC-23 (antibody, V domains shown)
VH: QVQLQQSGPELVKPGASVKLSCKASGYSFTTYDINWVKERPGQGLEWIGWIYPREGSTNYNEKFRGKATLTADTSSSTAYMELHSLTSEDSAVYFCATYGSSRYYTMDYWGQGTSVTVSSA
VL: DIVLTQSPTSLAVSLGQRATISCRASESVDNFGISFMNWFQQKPGQPPKLLIYAASNLGSGVPARFSGSGSGTDFSLNIHPMEDDDTAMYFCQQSKEVPLTFGAGTKLELKR
With B1, the FcγRIV activation result is recorded as “highest level of FcγR activation”.
